Where “and” joins values, the source holds several entries; their conditions need not be identical. Equal entries are not always repeated. The whole screen tested about 420,000 compounds, of which about 64,000 (15%) were called active. Inconclusive results, whose numbers are uncertain, are shown with a selection of clear calls. The call rests on the fitted dose curve; in most records, active means well fitted inhibition curve with a large enough effect; inconclusive means small, poorly fitted or top-dose-only effect; inactive means flat fitted curve, though single readings scatter. A potency beside an inconclusive call is a rough fit, not a confirmed value.
Assay: qHTS for Inhibitors of human tyrosyl-DNA phosphodiesterase 1 (TDP1): qHTS in cells in absence of CPT; further: nearly all actives have a fitted effect of over 55% in size
Settings: DT40 Tdp1-/- hTDP1 cells, no CPT, ATP luminescence, 48 h; activity change, negative = growth inhibition: at 46.2 µM (top of the series)
Procedure, shortened: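 Seeded 400 DT40-hTDP1 cells/well (vehicle DMSO, no 20 nM CPT); pinned compounds; ≥48 hr at 37 °C; CellTiter-Glo luminescence as viability measure.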
With `CCOc1ccc(-n2c(=O)c3c(C)c(C)sc3n(Cc3ccc(C(C)(C)C)cc3)c2=O)cc1` the Potency was inconclusive: 29.1 µM [inhibitor, single point]. With `CC1(C)CC(=O)C(C(c2ccccc2F)C2C(=O)CC(C)(C)CC2=O)C(=O)C1` the “activity change, negative = growth inhibition” value was inactive: 8.57%. With `Cc1ccccc1C1C(C#N)=C2N=C(N)c3c(sc4c3CCCCC4)N2C2=C1C(=O)CCC2` (stereo not given) the Potency was inconclusive: 29.1 µM [inhibitor, single point]. With `Cc1ccc(S(=O)(=O)n2nccc2-c2c(-c3ccccc3)noc2C)cc1` the Potency was active: 18.4 µM. In the case of `CCCCn1c(C)cc(C)c(S(=O)(=O)c2ccccc2C)c1=O`, the Potency was inconclusive: 29.1 µM [inhibitor, single point]. For `Cc1cc(=O)oc2cc3c(cc12)OCO3`, the “activity change, negative = growth inhibition” value was inactive: -17.5%. In the case of `CCN(C(=O)COC(=O)CSc1ccc(C(N)=O)cc1[N+](=O)[O-])C1CCCCC1`, the “activity change, negative = growth inhibition” value was inactive: -13.9%. For `COc1ccc(Cl)cc1NC(=O)COc1cccc2c(=O)n(C)ccc12`, the Potency was inconclusive: 2.59 µM [inhibitor, full curve, poor fit]. In the case of `COc1ccc(NCc2nnc(SCc3ccc(Cl)cc3)n2-c2ccccc2)cc1`, the Potency was active: 18.4 µM. In the case of `CCCCNC(=O)Cn1nc(N2CCN(c3ccccc3OC)CC2)ccc1=O`, the Potency was inconclusive: 18.4 µM [inhibitor, single point]. For `COc1ncc(-c2ccc(N3C(c4ccsc4)=Cc4ccc(F)cc4C3CC(=O)c3ccco3)cc2)cn1` (stereo not given), the Potency was inconclusive: 14.6 µM [inhibitor, partial curve]. In the case of `Cc1ccc(NC(=S)c2nc3ccccc3s2)cc1`, the Potency was inconclusive: 23.1 µM [inhibitor, single point]. In the case of `COc1ccc(NC(=O)c2cn(CCC#N)nc2-c2cc3ccccc3o2)cc1`, the activity change, negative = growth inhibition was inconclusive: -31% [inhibitor]. For `CCCCCN=C(N)N/N=C/c1c[nH]c2ccc(OC)cc12`, the Potency was active: 2.59 µM. For `CCn1nnc(NC(=O)Cc2ccc(Cl)cc2)n1`, the “activity change, negative = growth inhibition” value was inactive: 1.96%. For `COc1ccc(CCN(C)C(=O)c2ccc(S(=O)(=O)NCc3ccco3)cc2)cc1OC`, the “activity change, negative = growth inhibition” value was inactive: -4.14%. For `COc1cccc(C(=O)N2CCc3cc(OC)c(OC)cc3C2COc2ccc3c(C)cc(=O)oc3c2)c1` (stereo not given), the Potency was active: 10.3 µM. With `CCCC(=O)NC(=S)Nc1cccc2c(O)cccc12` the “activity change, negative = growth inhibition” value was inactive: -26.7%. With `CCN(CC(=O)Nc1ccc(NC(C)=O)cc1)CC(=O)Nc1ccccc1C(=O)c1ccccc1` the Potency was inconclusive: 29.1 µM [inhibitor, single point]. For `C=CCOc1nc(-c2ccncc2)nc2ccccc12`, the Potency was inconclusive: 18.4 µM [inhibitor, partial curve]. In the case of `Cc1cccc(C)c1C(O)c1ncc(-c2cccc(C(F)(F)F)c2)[nH]1` (stereo not given), the Potency was inconclusive: 0.0052 µM [inhibitor, full curve, poor fit]. In the case of `COc1ccc(-n2cc(CNCCCN3CCCC3=O)c(-c3ccccc3Cl)n2)cc1`, the Potency was active: 16.4 µM. For `CCc1nn(CC(=O)N2CCN(CC)CC2)c(=O)c2cc3sccc3n12`, the activity change, negative = growth inhibition was inconclusive: -30.9% [inhibitor]. For `COc1ccc(CNC(=O)COC(=O)c2cc(-c3ccc(Cl)s3)nc3ccccc23)cc1`, the Potency was inconclusive: 29.1 µM [inhibitor, single point]. With `Cc1ccc(NC(=O)/C(=C\c2ccc([N+](=O)[O-])cc2)NC(=O)c2ccccc2)cc1` the Potency was inconclusive: 25.9 µM [inhibitor, single point]. In the case of `CCC(Oc1ccccc1)C(=O)Nc1ccc(-c2nnc(-c3ccco3)o2)cc1` (stereo not given), the Potency was inconclusive: 25.9 µM [inhibitor, single point]. In the case of `COc1ccc(C(=O)NC(=S)N2CCC(C)CC2)cc1`, the Potency was inconclusive: 29.1 µM [inhibitor, single point]. For `Cc1nc2ccccn2c1/C(O)=C1\C(=O)C(=O)N(CCCn2ccnc2)C1c1ccncc1` (stereo not given), the “activity change, negative = growth inhibition” value was inactive: -16.9%. In the case of `O=S(=O)(Nc1ccccc1N1CCCCC1)c1ccc(F)cc1F`, the Potency was inconclusive: 10.3 µM [inhibitor, partial curve]. In the case of `CCCCN(C(=O)CCn1c(=O)oc2ccccc21)c1ccccc1`, the Potency was inconclusive: 23.1 µM [inhibitor, single point] and inconclusive: 29.1 µM [inhibitor, single point]. With `CCOC1=C2[C@@H](CN(S(=O)(=O)c3ccc(C)cc3)[C@H]2c2ccc(CC)cc2)[C@H]2C(=O)N(c3ccccc3)C(=O)[C@H]2C1` the Potency was inconclusive: 25.9 µM [inhibitor, single point]. For `O=C(Nc1ccc2c(c1)OCO2)Nc1ccc(F)cc1F`, the Potency was active: 2.31 µM. For `COc1ccc(NC(=O)C2(c3ccc(NC(=O)c4ccc(OC(C)=O)cc4)cc3)CCCC2)cc1`, the “activity change, negative = growth inhibition” value was inactive: -24.1%. In the case of `O=[N+]([O-])c1cc(Cl)cc(C2=NCCN2)c1`, the Potency was inconclusive: 6.51 µM [inhibitor, partial curve, poor fit]. In the case of `CC(NNC(=O)c1ccccc1)c1ccccc1` (stereo not given), the “activity change, negative = growth inhibition” value was inactive: -26.7%. With `COc1cc(NC(=O)c2noc3c2CC(C(C)(C)C)CC3)cc(OC)c1OC` (stereo not given) the Potency was active: 16.4 µM. For `CC(=O)Nc1ccc(-c2csc(Nc3cccc(C)n3)n2)cc1`, the Potency was inconclusive: 8.2 µM [inhibitor, partial curve]. In the case of `CC(OC(=O)c1ccccc1OCCOc1ccccc1)C(=O)Nc1ccc(Br)cc1` (stereo not given), the “activity change, negative = growth inhibition” value was inactive: -26.6%. For `CCCc1[nH]nc2c1C(c1ccc(OCCN3CCOCC3)c(OCC)c1)C(C#N)=C(N)O2` (stereo not given), the “activity change, negative = growth inhibition” value was inactive: -8.5%. With `Cc1cc2c(cc1S(=O)(=O)Nc1cccc(C)c1C)OCC(=O)N2` the Potency was inconclusive: 29.1 µM [inhibitor, single point]. With `COCCn1c(C)cc(O)c(C(c2ccccc2Cl)N2CCN(c3ccccc3)CC2)c1=O` (stereo not given) the “activity change, negative = growth inhibition” value was inactive: -27.3%. For `O=C(Nc1ccccc1)Nc1cc([N+](=O)[O-])ccc1F`, the Potency was inconclusive: 29.1 µM [inhibitor, single point]. With `Cc1nc(N)sc1-c1csc(Nc2ccccc2)n1` the Potency was inconclusive: 14.6 µM [inhibitor, partial curve]. In the case of `Cc1ccc(S(=O)(=O)CCc2nnc(N)s2)cc1C`, the “activity change, negative = growth inhibition” value was inactive: -4.01%. For `CCc1ccc(/C=C2/SC(=S)N(CCCC(=O)Nc3cccc(C(=O)O)c3)C2=O)cc1`, the Potency was inconclusive: 25.9 µM [inhibitor, single point].

Source: PubChem BioAssay AID686978 (National Center for Advancing Translational Sciences (NCATS), 2013)
On the % scale 0 is the no-effect control and ±100 the full control effect; potency means the concentration at half of the fitted maximal effect; tags describe the fitted curve by direction and shape.
